Where “and” joins values, the source holds several entries; their conditions need not be identical. Identical values can stand only once.
Molecular target: recombinant SARS-CoV-2 RBD (His-tagged SARS-CoV-2 RBD fusion protein) (SARS-CoV-2)

B1: CLEC2.Fc protein (Fc fusion)
chain: not shown
  Kd: 7.92 µM and 7.48 µM
  koff: 0.000574 s⁻¹ and 0.000849 s⁻¹

— patent publication US20230365640A1 (ACADEMIA SINICA, published 2023)
